Test results: PubChem BioAssay AID1768 (National Center for Advancing Translational Sciences (NCATS), 2009)
The campaign covered roughly 270,000 compounds. About 620 (0.23%) were called active. Inconclusive means that the source gave no clear call. Such entries were picked first, then a sample of the others. Calls come from the whole dose curve; as a rule, active = well fitted inhibition curve with a large enough effect in the polarisation, with a control signal flat (not every such curve was filed as active); inconclusive = small, poorly fitted or top-dose-only effect, or effect the other way, or a change in a side signal; inactive = no such curve, though single readings can be large or run the other way; the % refers to the polarisation. Where the call is inconclusive, the potency comes from a doubtful curve fit. “Side channel” marks fits to a control or component signal instead of the main read-out.

What follows are molecules tested against Menin (Homo sapiens) (UniProt O00255) (assay: qHTS Assay for Inhibitors Targeting the Menin-MLL Interaction in MLL Related Leukemias: Competition With Texas Red Labeled MLL-derived Mutant Peptide). Settings: fluorescence polarization; FP activity change, negative = inhibition: at 61.6 µM (top of the series).
Potency is the fitted concentration of half-maximal effect; tags give direction and shape of the fitted curve or compound fluorescence and quenching.
Throughout, for FP activity change, negative = inhibition: % of control where 0% means no effect.

UniProt O00255, sequence (O00255 whole entry, looked up): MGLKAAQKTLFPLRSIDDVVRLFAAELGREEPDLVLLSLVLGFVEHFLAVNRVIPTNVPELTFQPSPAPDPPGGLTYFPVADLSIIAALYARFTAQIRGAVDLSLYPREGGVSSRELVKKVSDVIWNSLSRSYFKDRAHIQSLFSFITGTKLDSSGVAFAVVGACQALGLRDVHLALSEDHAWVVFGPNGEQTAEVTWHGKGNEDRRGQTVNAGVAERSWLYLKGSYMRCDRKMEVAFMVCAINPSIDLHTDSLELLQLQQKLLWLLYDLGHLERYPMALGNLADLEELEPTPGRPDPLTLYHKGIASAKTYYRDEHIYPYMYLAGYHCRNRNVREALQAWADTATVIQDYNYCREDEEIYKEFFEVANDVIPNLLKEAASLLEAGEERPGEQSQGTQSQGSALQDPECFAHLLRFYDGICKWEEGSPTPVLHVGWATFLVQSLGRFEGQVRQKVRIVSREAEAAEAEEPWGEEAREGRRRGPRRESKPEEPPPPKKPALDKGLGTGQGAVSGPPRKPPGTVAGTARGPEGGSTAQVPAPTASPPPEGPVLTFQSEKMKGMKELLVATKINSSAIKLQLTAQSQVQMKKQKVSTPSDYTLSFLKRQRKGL

Q: How did the Potency turn out when `O=C1/C(=C/c2cccs2)SC(=S)N1c1ccccc1` was run?
A: inconclusive: 10 µM [inhibitor, partial curve]

Q: How did the Potency turn out when `COc1ccc(C2C(C#N)=C(N)Oc3cc(N)ccc32)cc1OC` (centres undefined) was run?
A: inconclusive: 8.91 µM [quencher, side channel, full curve]

Q: `CCCc1cc(-c2n[nH]c(C)c2-c2ccc(C(=O)OCC)o2)c(O)cc1O` was tested. Which Potency did it give?
A: inconclusive: 39.8 µM [quencher, side channel, single point]

Q: How did the Potency turn out when `O=C(NCc1ccc2c(c1)OCO2)Nc1cccc(Cl)c1` was run?
A: inconclusive: 15.8 µM [quencher, side channel, partial curve]

Q: With `N#CC(C#N)=Cc1ccc(OC(=O)c2ccccn2)cc1` as the molecule, how does the “FP activity change, negative = inhibition” value read?
A: inactive: -17%

Q: With `CCOc1ccc(C(=O)NC(=S)Nc2cccc(NC(=O)c3ccco3)c2)cc1[N+](=O)[O-]` as the molecule, how does the Potency read?
A: inconclusive: 6.31 µM [quencher, side channel, partial curve]

Q: How did the Potency turn out when `Cc1ccc(C)c(NC(=O)CC2Oc3ccccc3NC2=O)c1` (centres undefined) was run?
A: inconclusive: 35.5 µM [fluorescent, side channel, single point]

Q: Which Potency does the source give for `CCOC(=O)c1cnc2c(OC)cccc2c1N1CCN(c2ccc(OC)cc2)CC1` here?
A: inconclusive: 0.708 µM [inhibitor, full curve, poor fit]

Q: For `CCOCCCNC(=O)C(c1ccc(C)cc1)N(Cc1ccc2c(c1)OCO2)C(=O)CNC(C)=O` (centres undefined), which Potency is on record?
A: inconclusive: 8.91 µM [inhibitor, single point]

Q: How did the Potency turn out when `COc1cc(C2C3=C(CC(C)(C)CC3=O)Nc3ccccc3N2C(C)=O)cc(OC)c1OC` (centres undefined) was run?
A: inconclusive: 4.47 µM [inhibitor, full curve]

Q: Which Potency does the source give for `Cc1ccc(-c2noc(CCC(=O)NC3CCCC3)n2)cc1` here?
A: inconclusive: 39.8 µM [quencher, single point]

Q: `CC(C)(CNc1ccc([N+](=O)[O-])cc1Cl)CNS(C)(=O)=O` was tested. Which Potency did it give?
A: inconclusive: 25.1 µM [quencher, side channel, single point]

Q: With `COc1ccc(/C=N\NC(=O)c2cccc([N+](=O)[O-])c2)cc1Cn1cc([N+](=O)[O-])cn1` as the molecule, how does the Potency read?
A: inconclusive: 28.2 µM [quencher, side channel, partial curve]

Q: With `COc1ccc(-n2nc([N+](=O)[O-])c(=NCCc3ccc(C)cc3)n2O)cc1` as the molecule, how does the “FP activity change, negative = inhibition” value read?
A: inactive: 2.44%

Q: With `Cc1ccc(NC(=O)CN(c2ccc(Cl)cc2)S(=O)(=O)c2cc([N+](=O)[O-])ccc2Cl)cc1` as the molecule, how does the Potency read?
A: inconclusive: 10 µM [quencher, side channel, partial curve]

Q: For `CCOC(=O)c1ccc(NC(=O)CSc2nc(C)cc(=O)[nH]2)cc1`, which Potency is on record?
A: inconclusive: 31.6 µM [quencher, side channel, single point]

Q: How did the Potency turn out when `COc1cc(CCC(=O)OCC(=O)Nc2cccc(S(=O)(=O)N(C)C)c2)cc(OC)c1OC` was run?
A: inconclusive: 7.94 µM [inhibitor, single point]

Q: For `COc1ccc(C2=NN(C(=O)c3ccccc3)C(c3ccc(OC)c(OC)c3)C2)c(OC(C)=O)c1` (centres undefined), which Potency is on record?
A: inconclusive: 15.8 µM [fluorescent, side channel, partial curve]

Q: With `O=C(O)C(c1ccccc1)N1C(=O)/C(=C\c2ccc(-c3cccc(Cl)c3)o2)SC1=S` (centres undefined) as the molecule, how does the Potency read?
A: inconclusive: 15.8 µM [quencher, side channel, partial curve]

Q: How did the Potency turn out when `CCC(=O)Nc1ccc(S(=O)(=O)Nc2c(NC)c3ccccc3oc2=O)cc1` was run?
A: inconclusive: 39.8 µM [fluorescent, single point]

Q: Which Potency does the source give for `COc1ccc(Nc2ncnc3sccc23)c(OC)c1` here?
A: inconclusive: 22.4 µM [quencher, side channel, partial curve]

Q: `Cc1cnc(CNc2cc(-c3ccoc3)ncn2)cn1` was tested. Which Potency did it give?
A: inconclusive: 20 µM [inhibitor, single point]

Q: With `CC(=O)C1=C(NC(=O)c2ccc(F)cc2)CC2C1C2(C)C` (centres undefined) as the molecule, how does the Potency read?
A: inconclusive: 39.8 µM [inhibitor, partial curve, poor fit]

Q: Which Potency does the source give for `Cc1ccc(NC(=S)N=Nc2c(O)n(C)c3ccc(S(=O)(=O)N4CCOCC4)cc23)cc1` here?
A: inconclusive: 28.2 µM [quencher, side channel, partial curve]

Q: Which Potency does the source give for `COc1ccc(CC(=O)Nc2ccc(C(=O)NC(C)(C)C)cc2)cc1` here?
A: inconclusive: 39.8 µM [inhibitor, single point]

Q: `O=C(Nc1ccc2c(c1)OCCO2)C1CCN(S(=O)(=O)c2ccc(Br)s2)CC1` was tested. Which Potency did it give?
A: inconclusive: 15.8 µM [quencher, side channel, partial curve]

Q: How did the Potency turn out when `CCCCN(C)CCCNC(=O)C1CCC(CNS(=O)(=O)c2c(C)cc(C)cc2C)CC1` (centres undefined) was run?
A: inconclusive: 28.2 µM [fluorescent, side channel, partial curve]

Q: How did the Potency turn out when `COc1cc2c(cc1NC(=O)CSc1ccccn1)oc1ccccc12` was run?
A: inconclusive: 8.91 µM [quencher, side channel, full curve, poor fit]

Q: How did the Potency turn out when `Clc1ccc(Nc2ccc(-n3ccnc3)nn2)cc1Cl` was run?
A: inconclusive: 14.1 µM [quencher, side channel, partial curve]

Q: `O=C1CC(=O)N(CCc2ccccc2)C(=O)N1CCc1ccccc1` was tested. Which Potency did it give?
A: inconclusive: 3.98 µM [quencher, side channel, full curve, poor fit]

Q: With `CC1(C)CC(NC(=O)c2cccc(Cl)c2)CC(C)(C)N1` as the molecule, how does the Potency read?
A: inconclusive: 10 µM [fluorescent, side channel, partial curve]

Q: For `Cc1ccccc1N1CCN(S(=O)(=O)C[C@]23CCC(CC2NC(=O)[C@@H](N)CCS(C)(=O)=O)C3(C)C)CC1` (some centres undefined), which Potency is on record?
A: inconclusive: 12.6 µM [fluorescent, side channel, partial curve]

Q: `CC(NCC(O)COC1CCC(C(C)(C)C)CC1)c1ccccc1` (centres undefined) was tested. Which Potency did it give?
A: inconclusive: 1.78 µM [fluorescent, side channel, full curve, poor fit]

Q: Which Potency does the source give for `CCOC(=O)c1c(C)nc2ccccc2c1-c1ccccc1` here?
A: inconclusive: 5.01 µM [inhibitor, full curve, poor fit]

Q: With `CCC1(C)Cc2c(sc3nnn(CC(=O)Nc4ccc(Cl)cc4)c(=O)c23)CO1` (centres undefined) as the molecule, how does the Potency read?
A: inconclusive: 8.91 µM [quencher, side channel, partial curve]

Q: `Cc1ccccc1Nc1nc(-c2sc(NC(=O)c3ccccc3)nc2C)cs1` was tested. Which Potency did it give?
A: inconclusive: 14.1 µM [quencher, side channel, partial curve]

Q: `C=CCNC(=O)c1onc(CSc2cccc(Cl)c2)c1C(=O)O` was tested. Which Potency did it give?
A: inconclusive: 8.91 µM [quencher, side channel, full curve, poor fit]

Q: With `O=C(N/N=C\c1ccc([N+](=O)[O-])s1)C1COc2ccccc2O1` (centres undefined) as the molecule, how does the Potency read?
A: inconclusive: 22.4 µM [quencher, partial curve]

Q: `N#C/C(=C\c1ccc(Sc2ccc(Cl)cc2)o1)c1nc2ccccc2[nH]1` was tested. Which Potency did it give?
A: inconclusive: 15.8 µM [quencher, side channel, partial curve]

Q: Which Potency does the source give for `COc1ccc(C2C(=O)N(C3CCCCC3)CC(=O)N2CCc2ccccc2)cc1OC` (centres undefined) here?
A: inconclusive: 2 µM [fluorescent, side channel, partial curve]

Q: How did the Potency turn out when `Cc1ccc(-n2nc3ccc(N)cc3n2)cc1` was run?
A: inconclusive: 25.1 µM [quencher, side channel, partial curve]

Q: How did the Potency turn out when `N#Cc1ccccc1CN1C(=O)S/C(=C/c2cccn2-c2ccc(C(=O)O)cc2)C1=O` was run?
A: inconclusive: 20 µM [quencher, side channel, partial curve]

Q: How did the “FP activity change, negative = inhibition” value turn out when `CCOC(=O)Nc1ccc2c(c1)N(C(=O)CCN(CC)CC)c1ccccc1CC2` was run?
A: inactive: -9.82%

Q: For `Fc1ccc(COc2ccc3ccccc3c2CNc2nn[nH]n2)cc1`, which Potency is on record?
A: inconclusive: 31.6 µM [inhibitor, single point]

Q: How did the Potency turn out when `O=C(CSc1nnc2c(n1)[nH]c1ccc(S(=O)(=O)N3CCOCC3)cc12)Nc1ccccc1Cl` was run?
A: inconclusive: 4.47 µM [quencher, side channel, partial curve]

Q: How did the Potency turn out when `O=C(/C=C/c1ccco1)Nc1cccc(NC(=O)/C=C/c2ccco2)n1` was run?
A: inconclusive: 12.6 µM [quencher, side channel, partial curve]

Q: Which Potency does the source give for `CCOC(=O)c1ccc(NC(=O)c2cccc(S(=O)(=O)N3CCOCC3)c2)cc1` here?
A: inconclusive: 20 µM [quencher, side channel, partial curve]

Q: `Cc1ccc(NC(=O)C(C)OC(=O)c2ccc(NS(=O)(=O)c3ccc(F)c(F)c3)cc2)cc1` (centres undefined) was tested. Which Potency did it give?
A: inconclusive: 11.2 µM [quencher, side channel, partial curve]

Q: `CC(CN1C(C)CCCC1C)OC(=O)c1ccc(F)cc1` (centres undefined) was tested. Which Potency did it give?
A: inconclusive: 3.16 µM [inhibitor, full curve]

Q: How did the Potency turn out when `CSc1ccccc1NC(=O)c1cc2c(=O)n3ccccc3nc2s1` was run?
A: inconclusive: 11.2 µM [inhibitor, partial curve, poor fit]

Q: Which Potency does the source give for `Cc1ccc(CN(Cc2cc3cc4c(cc3[nH]c2=O)OCCO4)Cc2nnnn2Cc2ccco2)cc1` here?
A: inconclusive: 39.8 µM [quencher, side channel, single point]

Q: With `CNC(=S)N1N=C(c2ccc(Br)cc2)CC1c1ccc(Br)cc1` (centres undefined) as the molecule, how does the Potency read?
A: inconclusive: 31.6 µM [inhibitor, single point]

Q: With `O=C(C1CC1)N1N=C(C2CCCCC2)CC1(O)C(F)(F)F` (centres undefined) as the molecule, how does the Potency read?
A: inconclusive: 44.7 µM [fluorescent, side channel, partial curve]

Q: For `COC(=O)c1ccc2c(c1)SC1=C(CCCC1=O)N2`, which Potency is on record?
A: inconclusive: 31.6 µM [inhibitor, single point]
